Source: paper PMC12820563
The other results are listed elsewhere or left out. The list includes weakly bound sequences.

Biological target: T1, MBP-FoxP3dN (UniProt Q99JB6)
T1 sequence: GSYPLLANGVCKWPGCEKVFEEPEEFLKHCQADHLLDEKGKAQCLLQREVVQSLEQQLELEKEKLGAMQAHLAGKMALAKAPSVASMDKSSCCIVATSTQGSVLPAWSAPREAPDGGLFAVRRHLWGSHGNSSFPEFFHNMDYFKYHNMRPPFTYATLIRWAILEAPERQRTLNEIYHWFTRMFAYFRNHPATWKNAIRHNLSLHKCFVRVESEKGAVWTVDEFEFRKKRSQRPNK
Assay: PD-seq (MBP pull-down with sequencing)
Details: 20 mM Tris-HCl pH 7.5, 100 mM NaCl, 1.5 mM MgCl2, 0.4 uM protein, 0.1 uM dsDNA library, 30 min, room temperature, amylose pull-down; high values mean tight binding; double strand, one strand shown

Sequence	binding signal (RPM ratio (pull-down/input))
GATGATTGTTCTCCCAGCTGATGAATTAAGTCCCTCGAGTAAACAAATTTTCCTAATCTTTCTGTTCAAGCGCCATCTAC	0.431
GATGATTGTTCTCCCAGCTGATGAATTCCGGAAATCGAGTAAACAAATTTTCCTAATCTTTCTGTTCAAGCGCCATCTAC	0.237
GATGATTGTTCTCCCAGCTGATGAATTGTAAGCTTCGAGTAAACAAATTTTCCTAATCTTTCTGTTCAAGCGCCATCTAC	0.684
GATGATTGTTCTCCCAGCTGATGAATTGGGTTTTTCGAGTAAACAAATTTTCCTAATCTTTCTGTTCAAGCGCCATCTAC	1.13
GATGATTGTTCTCCCAGCTGATGAATTAATCTTATCGAGTAAACAAATTTTCCTAATCTTTCTGTTCAAGCGCCATCTAC	0.343
GATGATTGTTCTCCCAGCTGATGAATTACCTCACTCGAGTAAACAAATTTTCCTAATCTTTCTGTTCAAGCGCCATCTAC	0.335
GATGATTGTTCTCCCAGCTGATGAATTAGGCCATTCGAGTAAACAAATTTTCCTAATCTTTCTGTTCAAGCGCCATCTAC	3.58
GATGATTGTTCTCCCAGCTGATGAATTCACCTTCTCGAGTAAACAAATTTTCCTAATCTTTCTGTTCAAGCGCCATCTAC	0.345
GATGATTGTTCTCCCAGCTGATGAATTGTATCGCTCGAGTAAACAAATTTTCCTAATCTTTCTGTTCAAGCGCCATCTAC	1.16
GATGATTGTTCTCCCAGCTGATGAATTCAATTTTTCGAGTAAACAAATTTTCCTAATCTTTCTGTTCAAGCGCCATCTAC	0.853
GATGATTGTTCTCCCAGCTGATGAATTCTGGAAGTCGAGTAAACAAATTTTCCTAATCTTTCTGTTCAAGCGCCATCTAC	0.156
GATGATTGTTCTCCCAGCTGATGAATTGACAGTCTCGAGTAAACAAATTTTCCTAATCTTTCTGTTCAAGCGCCATCTAC	0.505
GATGATTGTTCTCCCAGCTGATGAATTTGCCCAGTCGAGTAAACAAATTTTCCTAATCTTTCTGTTCAAGCGCCATCTAC	0.28
GATGATTGTTCTCCCAGCTGATGAATTGGTTCGGTCGAGTAAACAAATTTTCCTAATCTTTCTGTTCAAGCGCCATCTAC	0.261
GATGATTGTTCTCCCAGCTGATGAATTGTCCCTCTCGAGTAAACAAATTTTCCTAATCTTTCTGTTCAAGCGCCATCTAC	0.433
GATGATTGTTCTCCCAGCTGATGAATTATTCGTTTCGAGTAAACAAATTTTCCTAATCTTTCTGTTCAAGCGCCATCTAC	0.39
GATGATTGTTCTCCCAGCTGATGAATTTAGTCCCTCGAGTAAACAAATTTTCCTAATCTTTCTGTTCAAGCGCCATCTAC	0.694
GATGATTGTTCTCCCAGCTGATGAATTTCTTCCTTCGAGTAAACAAATTTTCCTAATCTTTCTGTTCAAGCGCCATCTAC	0.237
GATGATTGTTCTCCCAGCTGATGAATTTATTAAATCGAGTAAACAAATTTTCCTAATCTTTCTGTTCAAGCGCCATCTAC	0.333
GATGATTGTTCTCCCAGCTGATGAATTTCCTCACTCGAGTAAACAAATTTTCCTAATCTTTCTGTTCAAGCGCCATCTAC	0.285
GATGATTGTTCTCCCAGCTGATGAATTGGGCAATTCGAGTAAACAAATTTTCCTAATCTTTCTGTTCAAGCGCCATCTAC	3.15

Sequence	binding signal (RPM ratio (pull-down/input))
GATGATTGTTCTCCCAGCTGATGAATTTGAATGCTCGAGTAAACAAATTTTCCTAATCTTTCTGTTCAAGCGCCATCTAC	1.31
GATGATTGTTCTCCCAGCTGATGAATTAGCCAGGTCGAGTAAACAAATTTTCCTAATCTTTCTGTTCAAGCGCCATCTAC	0.222
GATGATTGTTCTCCCAGCTGATGAATTGGTGATTTCGAGTAAACAAATTTTCCTAATCTTTCTGTTCAAGCGCCATCTAC	1.23
GATGATTGTTCTCCCAGCTGATGAATTGGTCAGATCGAGTAAACAAATTTTCCTAATCTTTCTGTTCAAGCGCCATCTAC	0.224
GATGATTGTTCTCCCAGCTGATGAATTTATTGACTCGAGTAAACAAATTTTCCTAATCTTTCTGTTCAAGCGCCATCTAC	5.75
GATGATTGTTCTCCCAGCTGATGAATTAACGTTCTCGAGTAAACAAATTTTCCTAATCTTTCTGTTCAAGCGCCATCTAC	0.551
GATGATTGTTCTCCCAGCTGATGAATTTCAGGTGTCGAGTAAACAAATTTTCCTAATCTTTCTGTTCAAGCGCCATCTAC	0.589
GATGATTGTTCTCCCAGCTGATGAATTTATGTTCTCGAGTAAACAAATTTTCCTAATCTTTCTGTTCAAGCGCCATCTAC	4.5
GATGATTGTTCTCCCAGCTGATGAATTGTTATACTCGAGTAAACAAATTTTCCTAATCTTTCTGTTCAAGCGCCATCTAC	1.21
GATGATTGTTCTCCCAGCTGATGAATTAAGTGTATCGAGTAAACAAATTTTCCTAATCTTTCTGTTCAAGCGCCATCTAC	2.15
GATGATTGTTCTCCCAGCTGATGAATTGTGCCTATCGAGTAAACAAATTTTCCTAATCTTTCTGTTCAAGCGCCATCTAC	3.46
GATGATTGTTCTCCCAGCTGATGAATTCTTTATTTCGAGTAAACAAATTTTCCTAATCTTTCTGTTCAAGCGCCATCTAC	0.422
GATGATTGTTCTCCCAGCTGATGAATTAGATAGCTCGAGTAAACAAATTTTCCTAATCTTTCTGTTCAAGCGCCATCTAC	0.537
GATGATTGTTCTCCCAGCTGATGAATTACTGGAGTCGAGTAAACAAATTTTCCTAATCTTTCTGTTCAAGCGCCATCTAC	0.212
GATGATTGTTCTCCCAGCTGATGAATTAAACCACTCGAGTAAACAAATTTTCCTAATCTTTCTGTTCAAGCGCCATCTAC	0.506
GATGATTGTTCTCCCAGCTGATGAATTCCAGAGTTCGAGTAAACAAATTTTCCTAATCTTTCTGTTCAAGCGCCATCTAC	0.346
GATGATTGTTCTCCCAGCTGATGAATTCGTGGAGTCGAGTAAACAAATTTTCCTAATCTTTCTGTTCAAGCGCCATCTAC	0.345
GATGATTGTTCTCCCAGCTGATGAATTATTCAAATCGAGTAAACAAATTTTCCTAATCTTTCTGTTCAAGCGCCATCTAC	0.376
GATGATTGTTCTCCCAGCTGATGAATTCTACAAATCGAGTAAACAAATTTTCCTAATCTTTCTGTTCAAGCGCCATCTAC	0.261
GATGATTGTTCTCCCAGCTGATGAATTCCGTGAGTCGAGTAAACAAATTTTCCTAATCTTTCTGTTCAAGCGCCATCTAC	0.472
GATGATTGTTCTCCCAGCTGATGAATTCCTTTCATCGAGTAAACAAATTTTCCTAATCTTTCTGTTCAAGCGCCATCTAC	0.303

Sequence	binding signal (RPM ratio (pull-down/input))
GATGATTGTTCTCCCAGCTGATGAATTACCGATATCGAGTAAACAAATTTTCCTAATCTTTCTGTTCAAGCGCCATCTAC	0.441
GATGATTGTTCTCCCAGCTGATGAATTTGAGAGCTCGAGTAAACAAATTTTCCTAATCTTTCTGTTCAAGCGCCATCTAC	0.258
GATGATTGTTCTCCCAGCTGATGAATTTATAATTTCGAGTAAACAAATTTTCCTAATCTTTCTGTTCAAGCGCCATCTAC	0.716
GATGATTGTTCTCCCAGCTGATGAATTCTGTAAGTCGAGTAAACAAATTTTCCTAATCTTTCTGTTCAAGCGCCATCTAC	0.91
GATGATTGTTCTCCCAGCTGATGAATTCGGTAGTTCGAGTAAACAAATTTTCCTAATCTTTCTGTTCAAGCGCCATCTAC	1.15
GATGATTGTTCTCCCAGCTGATGAATTATCACGGTCGAGTAAACAAATTTTCCTAATCTTTCTGTTCAAGCGCCATCTAC	0.289
GATGATTGTTCTCCCAGCTGATGAATTGATGAACTCGAGTAAACAAATTTTCCTAATCTTTCTGTTCAAGCGCCATCTAC	0.317
GATGATTGTTCTCCCAGCTGATGAATTTGACTTATCGAGTAAACAAATTTTCCTAATCTTTCTGTTCAAGCGCCATCTAC	0.798
GATGATTGTTCTCCCAGCTGATGAATTACCCCTTTCGAGTAAACAAATTTTCCTAATCTTTCTGTTCAAGCGCCATCTAC	0.31
GATGATTGTTCTCCCAGCTGATGAATTTAATCTATCGAGTAAACAAATTTTCCTAATCTTTCTGTTCAAGCGCCATCTAC	0.474
GATGATTGTTCTCCCAGCTGATGAATTGCACTTTTCGAGTAAACAAATTTTCCTAATCTTTCTGTTCAAGCGCCATCTAC	1.32
GATGATTGTTCTCCCAGCTGATGAATTTTACAGTTCGAGTAAACAAATTTTCCTAATCTTTCTGTTCAAGCGCCATCTAC	0.334
GATGATTGTTCTCCCAGCTGATGAATTTCCGTCTTCGAGTAAACAAATTTTCCTAATCTTTCTGTTCAAGCGCCATCTAC	0.426
GATGATTGTTCTCCCAGCTGATGAATTAAAATATTCGAGTAAACAAATTTTCCTAATCTTTCTGTTCAAGCGCCATCTAC	0.441
GATGATTGTTCTCCCAGCTGATGAATTTAAAACATCGAGTAAACAAATTTTCCTAATCTTTCTGTTCAAGCGCCATCTAC	0.573
GATGATTGTTCTCCCAGCTGATGAATTAAATGTATCGAGTAAACAAATTTTCCTAATCTTTCTGTTCAAGCGCCATCTAC	1.12
GATGATTGTTCTCCCAGCTGATGAATTATCATTTTCGAGTAAACAAATTTTCCTAATCTTTCTGTTCAAGCGCCATCTAC	0.575
GATGATTGTTCTCCCAGCTGATGAATTCCATGGGTCGAGTAAACAAATTTTCCTAATCTTTCTGTTCAAGCGCCATCTAC	0.335
GATGATTGTTCTCCCAGCTGATGAATTACAGGCGTCGAGTAAACAAATTTTCCTAATCTTTCTGTTCAAGCGCCATCTAC	0.779
GATGATTGTTCTCCCAGCTGATGAATTTAAGAATTCGAGTAAACAAATTTTCCTAATCTTTCTGTTCAAGCGCCATCTAC	0.586
GATGATTGTTCTCCCAGCTGATGAATTCACAAGCTCGAGTAAACAAATTTTCCTAATCTTTCTGTTCAAGCGCCATCTAC	0.292
